The chains are these.
B1: CPEB3 Ribozyme (parent)
chain: UAACAGGGGGCCACAGCAGAAGCGUUCACGUCGCAGCCCCUGUCAGAUUCUGGUGAAUCUGCGAAUUCUGCUGUAUAUCUC

Read counts are not given, so values of variants with three or more changes are uncertain.

The data set covers variants of B1. The data set can be described thus: self-cleavage, relative activity (ratio to wild type); higher = more cleavage; in vitro, sequencing. The essentials:
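After error-prone PCR and barcoding, CPEB3 ribozyme mutant libraries were transcribed with T7 RNA polymerase at 37°C for 5 hours, then given 15 min with DNase I before an EDTA stop, and they cleaved during both steps. Reverse transcription with template switching preceded Illumina sequencing. Relative activity divides a variant's cleaved/total read fraction by the unmutated ribozyme's. At least 5 reads were required per variant, and three batches were averaged.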
As for UGACAGGGGGCCACAGCAGAAGCGUCCACGUCGCAGCCCCUCUCAGAUUCUGGUGAAUCUGCGAAUUCUGCUGUAUAUCUC [A2G U26C G42C], the self-cleavage was 0.1.

Turning to UGACAGGGGGCCACAGCAGAAGCGUUCACGUCGCAACCCCCGUCAGAUUCUGGUGAAUCUGCGAAUUCUGCUGUAUAUCUC [A2G G36A U41C], the self-cleavage was 0.5. The result for UGACAGGGGGCCACAGCAGAAGCGUCCACGUCGCAGCCCCUGUCAGAUUCUGGAGAAUCUGCGAAUUCUGCUGUAUAUCUC [A2G U26C U54A] reads 0.47. Take UGACAGGGGACCACAGCAGAAGCGUACGCGUCGCAGCCCCUGUCAGAUUCUGGUGAAUCUGCGAACUCUGCUGUAUAUCUC [A2G G10A U26A A28G U66C]: the self-cleavage came out at 0.08. Regarding UGACAGGGAGCCACAGCAGAAGCGCUCACGUCGCAACCCCUGUCAGAUUCUGGUGAAUCUGCGAAUUCUGCUGUAUAUCUC [A2G G9A U25C G36A], the self-cleavage amounted to 0.06. In the case of UGACAGGGGACCACAGCCGAAGCGUUCACGUCGCAGCCCCUGUCAGAUUCUGGUGAAUCUGCGAAUUCUGCUGUAUAUCUC [A2G G10A A18C], the self-cleavage is 0.1. With UGACAGGGGGCCACAGCAGAAGCGCUCACGUCGCAGCCCCUGCCAGAUUCUGGUGAAUCUGCGAAUUCUGCUGUAUAUCUC [A2G U25C U43C], the self-cleavage was 0.11. Regarding UGACAGGGGGCCACAGCAGAAGCUUUCACGUCGCAGCCCCUGUCAGAUUCUCGUGAAUCUGCGAACUCUGCUGUAUAUCUC [A2G G24U G52C U66C], the self-cleavage amounted to 0.05. Take UGACAGGGGACCACAGCAGAAGCGUUCACGUCGCAGCCCCUGACAGAUUCUGGUGAAUCUGCGAAUUCUGCAGUAUUUCUC [A2G G10A U43A U72A A77U]: the self-cleavage is 0.05. Turning to UGACAGGGGGCCACAGCAGAAGCGAUCACGUCGCAGCCCCCGUCAGUUUCUGGUGAAUCUGCGAAUUCUGCUGUAUAUCUC [A2G U25A U41C A47U], the self-cleavage was 0.23.

For UGACAGGGGGCCACAGCAGAAGCGCUCACGUCGCAGCCCCUGUCAGAUUCUGGCGAAUCUGCGAACUCUGCUGUAUAUCUC [A2G U25C U54C U66C], the self-cleavage was 0.62. For UGACAGGGGGCCACAGCAGAAGCGUCCACGUCGCAGCCCCUGUCAGAUUCUGGUGAAUCUGCGAAUUCUGCUGUAUUCCUC [A2G U26C A77U U78C], the self-cleavage came out at 0.3. UGACAGGGGGCCACAGCAGAAGCGCUCGCGUCGCAGCCCCCGUCAGAUUCUGGUGAAUCUGCGAAUUCUGCUGUAUAUCUC [A2G U25C A28G U41C]: the self-cleavage worked out at 0.2.

For the variant UGACAGGGGGCCACAGCAGAAGCGUUCACGUCGCAGCCCCUAUCAGGUCCUGGUGAAUCUGCGAAUUCUGCUGUAUAUCUC [A2G G42A A47G U49C], the self-cleavage was determined as 0.35. As to UGACAGGGGGCCACAGCAGAAGCGAUCACGGCGCAGCCCCUGUCAGAUUCUGGAGAAUCAGCGAAUUCUGCUGUAUAUCUC [A2G U25A U31G U54A U60A], the self-cleavage amounted to 0.47. UGACAGGGGGCCACAGCAGAAGCGUUCACAUCGCAGCCCCUGUCAGAUUCUGGUGAAUCUGCGAAUUCUGCUGUAUACCUC [A2G G30A U78C]: the self-cleavage stood at 0.06. As to UGACAGGGGGCCACAGCAAAAGCGUUCACGUCGCAGGCCCUGACAGGUUCCGGUGAAUCUGCGAAUUCUGCUGUAUAUCUC [A2G G19A C37G U43A A47G U51C], the self-cleavage was 0.22. The same measure for UGACAGGGGGCCACAGCAGAAGCGUUCACGUCGCAUCCCCUGUCAGAUCCUGCUGAAUCUGCGAAUUCUGCUGUAUAUCUC [A2G G36U U49C G53C]: 0.18. As for UGACAGGGGGCCACAGCAGAAGCAUUCACGUCGCAGCCCCUGUCAGAUUCUGGUGAAUAUGCGAAUUCUGCCGUAUAUCUC [A2G G24A C59A U72C], the self-cleavage amounted to 0.19.

Regarding UGACAGGGCGCCACAGCGGGAGCGUUCGCGUCGCAGCCCCUGUCAGAUUCUGGUGAAUCUGCGAAUUCUGCUGUAUAUCUC [A2G G9C A18G A20G A28G], the self-cleavage worked out at 0.1. Consider UGACAGGGGGCCACAGCAGAAGCGCUAACGACGCAGCCCCUGUCAGAUUCUGGUGAAUCUGCGAAUUCUGCUGUAUGUCUC [A2G U25C C27A U31A A77G], for which the self-cleavage worked out at 0.38. On to UGACAGGGGGCCACAGCAGAAGCGUUCACACCACAGCCCCUGUCAGAUUCUGGUGAAUCUGCGAAUUCUGCUGCAUAUCUC [A2G G30A U31C G33A U74C], for which the self-cleavage came out at 0.1. The same measure for UGACAGGGGCCCACAGCAUAAGCGUUCACGUCGCAGCCCCUGUCAGAUUCUGGUGAAUCUGCGAAUUCUGCUGUAUACCUC [A2G G10C G19U U78C]: 0.07; for UGACAGGGGGCCACAGCAGAAGCGCUCACGUCGCGGCCCCUGUCAGAUUCUGGAGAAUCUGCGAAUUCUGCUGUAUAUCUC [A2G U25C A35G U54A]: 0.7; for UGACAGGGGGCCACAGCAGAAGCGUACACGUCGCAGCCCCUGUCAGAUCCUGGUGAAUCUGCGAAUUCUGCUGUAUAUCUC [A2G U26A U49C]: 0.08. The result for UGACAGGGGGCCACAGCAGAAGCGUACACGUCGCAGCCCUUGUCAGACUCUAGUGAAUCUGCGGAUUCUGCUGCAUAUCUC [A2G U26A C40U U48C G52A A64G U74C] reads 0.13; that for UGACAGGGGGCCACAGCAGAAGCGAACACGUCGCAGACCCUGUCAGAUCCUGGUGAAUCUGCGAAUUCUGCUGUAUAUCUC [A2G U25A U26A C37A U49C], 0.04; that for UGACAGGGGGCCACAGCAGAAGCAUUCACGUCGCAGCCCCGGUCAGAUUCUGGUGAGUCUGCGAAUUCUGCUGUAUAUCUC [A2G G24A U41G A57G], 0.32.

For UGACAGGGGGCCACAGCAGAAUCGUUCACGUCGCAGCCCCAGUCAGAUUCUGGUGAAUCUGCAGAUUCUGCUGUCUAUCUC [A2G G22U U41A G63A A64G A75C], the self-cleavage turned out to be 0.15. With UGACAGGGGGCCACAGCAGAAGCGUACACGCCGCAGCCCCUGUCAGAUUCUGGUGAAUCUGCGAAUUCUGCUGUAUACCUC [A2G U26A U31C U78C], the self-cleavage is 0.15.

With UGACAGGGGGCCACAGCAGAAGCGCUCCCGUCGCAACCCCUGUCAGAUUCUGGUGAAUCUGCGAAUUCUGCUGUUUAUCUC [A2G U25C A28C G36A A75U], the self-cleavage came to 0.22. Consider UGACAGGGGACCACGGCAGAAGGGUUCACGUCGCAGCCCCUGUCAGAUUCUGGUGAAUCUGCGAAUUCUGCAGUAUAUCUC [A2G G10A A15G C23G U72A], for which the self-cleavage was determined as 0.04. Turning to UGACAGGGGGCCACAGCAGAAGCGUUCACGUCGCAACCCCUGUCAGAUUCUGGUGAAUCAGCGAAUUCUGCUGCAUAUCUC [A2G G36A U60A U74C], the self-cleavage was determined as 0.25. UGACAGGGGGCCACAGCAGAAGCGUUCACAUCGCAGCCCCUGUCUGAUUCUGGUGAAUCUGCGAAUUCUGCUGUCUAUCUC [A2G G30A A45U A75C]: the self-cleavage worked out at 0.21.

The values above are taken from the RNAGym collection of RNA variant scans (doi:10.1093/nar/gkz1192).
